Substitutions are numbered along the chain they refer to; changes in the protein carry UniProt numbers. The list shows a part of the results.
T1: RBFOX1 RRM RbFoxmut (Fox-RRM*) (Homo sapiens, UniProt Q9NWB1 109-208, R118D;E147R;N151S;E152T)
T1 sequence: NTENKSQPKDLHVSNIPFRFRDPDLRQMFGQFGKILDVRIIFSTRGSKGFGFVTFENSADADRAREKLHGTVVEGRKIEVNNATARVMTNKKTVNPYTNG

B1: CGACCAG (DNA:RNA)
RNA: GGGAGACCGGAAUUCAGAUUGUCCCGACCAGUUAAAUCCCGUCGUAGCCACCA
DNA 1: CAATCTGAATTCCGGTCTCCC
DNA 2: TGGTGGCTACGACGGGATT
B2: AUAGCGA (DNA:RNA)
RNA: B1 RNA with C25A, G26U, C28G, A30G, G31A
DNA 1: CAATCTGAATTCCGGTCTCCC
DNA 2: TGGTGGCTACGACGGGATT
B3: UUGCCCG (DNA:RNA)
RNA: B1 RNA with C25U, G26U, A27G, A30C
DNA 1: CAATCTGAATTCCGGTCTCCC
DNA 2: TGGTGGCTACGACGGGATT
B4: AAUCGCU (DNA:RNA)
RNA: B1 RNA with C25A, G26A, A27U, C29G, A30C, G31U
DNA 1: CAATCTGAATTCCGGTCTCCC
DNA 2: TGGTGGCTACGACGGGATT
B5: UUGCAUC (DNA:RNA)
RNA: B1 RNA with C25U, G26U, A27G, C29A, A30U, G31C
DNA 1: CAATCTGAATTCCGGTCTCCC
DNA 2: TGGTGGCTACGACGGGATT
B6: UAUGUGA (DNA:RNA)
RNA: GGGAGACCGGAAUUCAGAUUGUCCUAUGUGAUUAAAUCCCGUCGUAGCCACCA
DNA 1: CAATCTGAATTCCGGTCTCCC
DNA 2: TGGTGGCTACGACGGGATT
B7: GUGUUAA (DNA:RNA)
RNA: B6 RNA with U25G, A26U, U27G, G28U, G30A
DNA 1: CAATCTGAATTCCGGTCTCCC
DNA 2: TGGTGGCTACGACGGGATT
B8: CACCAGG (DNA:RNA)
RNA: B1 RNA with G26A, A27C, C29A, A30G
DNA 1: CAATCTGAATTCCGGTCTCCC
DNA 2: TGGTGGCTACGACGGGATT
B9: CAUGUGG (DNA:RNA)
RNA: B6 RNA with U25C, A31G
DNA 1: CAATCTGAATTCCGGTCTCCC
DNA 2: TGGTGGCTACGACGGGATT

Biological target: T1, RBFOX1 RRM RbFoxmut (Fox-RRM*)
Test: EMSA; HiTS-Eq, 1 nM pool, 10 min; buffer printed only for the single-RNA assays: 10 mM Tris pH 7.5, 150 mM NaCl, 3.4 mM EDTA, 0.001% NP-40, 30 C
Settings: tags: His6 N-terminal (pET28a); label: 5' 32P
How it was run: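 Purified RbFox RRM, wild type or mutant, was incubated for 10 min in 50 µL with 1 nM of a 5′-radiolabelled RNA pool carrying 7 randomized nucleotides, whose flanks were annealed to DNA oligonucleotides, over a series of increasing protein concentrations. Unbound RNA was resolved on 8% native PAGE, cut out, reverse-transcribed, barcoded by PCR and sequenced on an Illumina HiSeq 2500. Relative association constants were derived from changes in read counts for each RNA species versus the control reaction and normalised to the cognate motif.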

Row | Binder | binding signal
1 | B1 | 0.0893 KA relative to UGCAUGU
2 | B2 | 0.0797 KA relative to UGCAUGU
3 | B3 | 0.178 KA relative to UGCAUGU
4 | B4 | 0.0718 KA relative to UGCAUGU
5 | B5 | 0.432 KA relative to UGCAUGU
6 | B6 | 0.0932 KA relative to UGCAUGU
7 | B7 | 0.102 KA relative to UGCAUGU
8 | B8 | 0.0996 KA relative to UGCAUGU
9 | B9 | 0.06 KA relative to UGCAUGU
